Measured values published in PMC4336329 (PLoS ONE, 2015).
Out of some 310,000 compounds screened, about 2,200 (0.71%) showed an effect of 50% or more. The effect is printed as a negative number. Some of the results follow.

These molecules were tested against human ether-à-go-go-related gene (hERG) potassium channel (human, UniProt Q12809) (assay: primary screen, population patch clamp on CHO cells stably expressing hERG).
Chain of human ether-à-go-go-related gene (hERG) potassium channel (Q12809 whole entry, looked up): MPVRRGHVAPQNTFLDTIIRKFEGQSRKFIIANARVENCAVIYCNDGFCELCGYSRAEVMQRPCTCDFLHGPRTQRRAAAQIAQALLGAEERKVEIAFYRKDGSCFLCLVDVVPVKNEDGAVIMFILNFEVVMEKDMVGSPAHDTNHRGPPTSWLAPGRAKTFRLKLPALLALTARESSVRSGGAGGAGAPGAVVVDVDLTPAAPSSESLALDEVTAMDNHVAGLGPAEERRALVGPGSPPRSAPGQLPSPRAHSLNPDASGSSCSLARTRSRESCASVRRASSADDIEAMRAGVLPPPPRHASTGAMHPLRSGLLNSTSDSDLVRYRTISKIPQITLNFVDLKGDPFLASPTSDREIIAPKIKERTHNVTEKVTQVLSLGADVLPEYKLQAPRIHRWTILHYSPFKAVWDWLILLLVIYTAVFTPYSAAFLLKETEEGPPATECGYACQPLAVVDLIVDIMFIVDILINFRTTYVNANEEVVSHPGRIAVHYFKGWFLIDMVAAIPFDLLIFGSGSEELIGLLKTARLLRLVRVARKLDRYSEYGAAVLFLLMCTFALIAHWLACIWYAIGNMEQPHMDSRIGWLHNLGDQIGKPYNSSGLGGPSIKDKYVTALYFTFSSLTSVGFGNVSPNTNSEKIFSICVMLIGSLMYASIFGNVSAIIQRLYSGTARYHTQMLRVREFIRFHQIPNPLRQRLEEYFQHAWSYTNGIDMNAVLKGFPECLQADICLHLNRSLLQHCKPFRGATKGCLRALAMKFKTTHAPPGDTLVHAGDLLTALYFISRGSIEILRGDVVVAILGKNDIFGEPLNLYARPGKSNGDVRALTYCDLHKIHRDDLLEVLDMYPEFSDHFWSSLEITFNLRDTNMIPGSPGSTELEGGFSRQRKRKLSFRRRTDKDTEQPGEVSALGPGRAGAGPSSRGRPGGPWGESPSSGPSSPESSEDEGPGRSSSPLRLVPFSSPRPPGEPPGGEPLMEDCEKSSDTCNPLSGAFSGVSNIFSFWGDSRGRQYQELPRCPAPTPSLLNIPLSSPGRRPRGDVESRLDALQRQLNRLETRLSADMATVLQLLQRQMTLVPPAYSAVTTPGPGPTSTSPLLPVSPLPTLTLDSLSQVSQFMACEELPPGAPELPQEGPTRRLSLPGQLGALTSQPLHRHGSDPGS

| SMILES | hERG current change (%, negative = inhibition) at 1uM |
| --- | --- |
| CCN(CC)S(=O)(=O)c1ccc(/C=C/C(=O)O)cc1 | 4.16% |
| Cc1cccc(Cc2nnc(CCC(=O)N(C)CCc3ccccc3)o2)c1 | 7.36% |
| O=C(NCCc1ccccc1)c1ccc(-c2ccccc2Cl)o1 | 7.88% |
| CC(=O)Nc1ccc(-n2nnnc2SCC(=O)N2CCN(C(=O)c3ccco3)CC2)cc1 | 13.2% |
| O=C(Nc1ccc(Cl)cc1)N[C@@H]1c2c(ccc3ccccc23)OC[C@@H]1CO | 10.5% |
| COC(=O)c1cc(Cl)cc(Cl)c1OS(=O)(=O)N(C)C | 1.43% |
| CSc1ccc(Cl)c(C(=O)Nc2ccc(Cl)cn2)c1 | 6.57% |
| COC(=O)c1c(C)[nH]c(C)c1-c1ccccc1 | -2.09% |
| CCOC(=O)c1ccc(CC2SC(N)=NC2=O)cc1 (centres unmarked) | 0.175% |
| O=C(CNC(=O)C(c1ccccc1)c1ccccc1)N/N=C/c1ccc(O)c([N+](=O)[O-])c1 | 9.77% |
| CCOC(=O)C1(Cc2ccccc2Cl)CCN(C(=O)CN2CCOC2=O)CC1 | 20.5% |
| CCCNS(=O)(=O)c1cc2c3c(c1)C(C)C(=O)N3CCC2 (centres unmarked) | 22.6% |
| O=C(COC(=O)CC1CCCC1)Nc1cc2c(cc1Cl)C(=O)c1ccccc1C2=O | 3.26% |
| COc1ccccc1CCC(=O)OCC(=O)Nc1ccc(C(N)=O)cc1 | 8.88% |
| O=C(O)c1ccccc1C(=O)OCc1ccccc1 | 9.44% |
| O=c1sc2ccccc2c(N2CCOCC2)c1[N+](=O)[O-] | 11.1% |
| Cc1ccc(C2=NN(CC(=O)NCCN(CC(C)C)CC(C)C)C(=O)CC2)cc1 | -3.88% |
| Cc1ccc(S(=O)(=O)n2ccc(-c3ccc(OCc4c(F)cccc4Cl)cc3)n2)cc1 | 10.6% |
| Cc1cc(C)c(-c2cc(C)nc3ncnn23)c(C)c1 | 10.7% |

| SMILES | hERG current change (%, negative = inhibition) at 1uM |
| --- | --- |
| O=C(O)c1cccc2c1C(=O)c1ccccc1C2=O | 12.6% |
| COc1ccc(NC(=O)CN(C)C(=O)c2oc3ccccc3c2C)cc1 | 0.906% |
| N#CCc1cc2ccc3cccc4ccc(c1)c2c34 | 10.6% |
| CCc1ccc(NC(=O)CSc2nc(=O)n(CCCN3CCOCC3)c3c2CCC3)cc1 | -0.632% |
| Cc1ccc(S(=O)(=O)NCCNC(C)c2ccc(Br)cc2)cc1 (centres unmarked) | 1.97% |
| O=C(CC1C(=O)NCCN1C1CCCC1)NCc1cccc(OC(F)(F)F)c1 (centres unmarked) | -0.913% |
| O=S(=O)(c1ccc2oc3ccccc3c2c1)N1CCCC1 | 4.66% |
| N#Cc1sc2nc3c(cc2c1N)CCCC3 | 3.69% |
| COc1ccc(CN2CCOCC2)c(C)c1C | -5.43% |
| CCCc1cc(=O)oc2cc(C)cc(OCC(=O)N[C@@H](CSCc3ccccc3)C(=O)O)c12 | -0.628% |
| O=C(Cn1cnc2nc3n(c2c1=O)CCC3)NCc1ccccc1 | 4.67% |
| COc1ccc(NC(=O)c2cnc3n(c2=O)CCS3)cc1OC | 9.37% |
| Cc1ccccc1NS(=O)(=O)c1ccc(C(=O)NCC(c2ccco2)N2CCCCC2)cc1 (centres unmarked) | 16.3% |
| O=C1N/C(=C\c2ccccc2)c2ccccc21 | 11.2% |
| C=CC[C@]12CC=CC(=O)[C@@]1(O)O[C@H](c1ccc(OC)c(OC)c1)[C@H]2C | 10.7% |
| COCCNc1nnc(SCC(=O)NNC(=O)c2ccco2)s1 | 9.15% |
| COc1ccc(-n2c(=S)[nH]c3cc(C(=O)N(C)Cc4ccccc4)ccc3c2=O)cc1 | 9.52% |
| CC(=O)Oc1ccc(C(=O)Nc2cccc(C(=O)c3cccc(NC(=O)c4ccc(OC(C)=O)cc4)c3)c2)cc1 | 9.04% |
| CCC(CO)NC(=O)C1C=C2c3cccc4[nH]cc(c34)CC2N(C)C1 (centres unmarked) | 17.8% |

| SMILES | hERG current change (%, negative = inhibition) at 1uM |
| --- | --- |
| CC(=O)c1ccc(NS(=O)(=O)c2ccc(N/C=C/C(=O)c3ccc(F)cc3)cc2)cc1 | 11.5% |
| COc1ccc(C2C(Oc3ccccc3)C(=O)N2c2ccc(C)c(C)c2)cc1OC (centres unmarked) | 4.67% |
| CC(C)(C)N(NC(=O)Nc1ccccc1)C(=O)c1ccccc1Cl | 21.2% |
| Cc1ccc(C)c(S(=O)(=O)N2CCN(C(=O)c3cncc(Br)c3)CC2)c1 | 6.33% |
| CCC(=O)NS(=O)(=O)c1cccnc1Nc1ccc(Cl)cc1 | 12.9% |
| CCOC(=O)c1c(C)[nH]c(N=Nc2cccc(C)c2)c1C | 10.5% |
| O=C(O)Cn1cc(C(=O)c2ccco2)c2ccccc21 | 16.7% |
| O=C(c1ccc(F)cc1)N1CCN(c2ccc([N+](=O)[O-])c(N3CCOCC3)c2)CC1 | 7.89% |
| O=C(Nc1ccccc1C(=O)NCCCN1CCOCC1)c1ccc(Cl)cc1 | -0.51% |
| COc1cccc(C(C(=O)NC(C)(C)C)N(C(=O)CCC(=O)Nc2cc(C)on2)C(C)C)c1OC (centres unmarked) | 15.5% |
| COc1ccc(N=C(C)C2=C(O)c3ccccc3C2=O)cc1 | 4.73% |
| Cc1cccc(NC(NC(=O)c2ccccn2)C(Cl)(Cl)Cl)c1 (centres unmarked) | -2.79% |
| COc1ccc(C(=O)NCc2nnc(SCC(=O)N3CCOCC3)o2)cc1 | 6.33% |
| CCCCOC(=O)COc1ccc(Cl)cc1Cl | 12.1% |
| COc1cccc(NC(=O)Cn2cc3c(n2)CCCCC3)c1 | 0.129% |
| COc1ccc(CNC(=O)Cn2nc(C(F)(F)F)cc2C)cc1 | 13.1% |
| O=C(Cn1c(COc2ccccc2)nc2ccccc21)Nc1cc(Cl)cc(Cl)c1 | 15.1% |
| O=C(O)c1ccccc1NC(=O)c1cc2ccccc2oc1=O | 17% |
